Results on 14 compounds are retold here after PubChem BioAssay (EPA / NIEHS).

This is a selection; strong and weak results do not stand in their true shares. Results filed as inconclusive are left out. A structure can be active in one record and inactive in another. The source made the active and inactive calls. Rule for the calls: active = hit-call score of the fitted dose curve at least 0.9, where 1 is the maximum; inconclusive = response in the unintended direction; inactive = score below 0.9.

Sequence of UniProt P10827 (P10827 whole entry, looked up, the tested form may be a part): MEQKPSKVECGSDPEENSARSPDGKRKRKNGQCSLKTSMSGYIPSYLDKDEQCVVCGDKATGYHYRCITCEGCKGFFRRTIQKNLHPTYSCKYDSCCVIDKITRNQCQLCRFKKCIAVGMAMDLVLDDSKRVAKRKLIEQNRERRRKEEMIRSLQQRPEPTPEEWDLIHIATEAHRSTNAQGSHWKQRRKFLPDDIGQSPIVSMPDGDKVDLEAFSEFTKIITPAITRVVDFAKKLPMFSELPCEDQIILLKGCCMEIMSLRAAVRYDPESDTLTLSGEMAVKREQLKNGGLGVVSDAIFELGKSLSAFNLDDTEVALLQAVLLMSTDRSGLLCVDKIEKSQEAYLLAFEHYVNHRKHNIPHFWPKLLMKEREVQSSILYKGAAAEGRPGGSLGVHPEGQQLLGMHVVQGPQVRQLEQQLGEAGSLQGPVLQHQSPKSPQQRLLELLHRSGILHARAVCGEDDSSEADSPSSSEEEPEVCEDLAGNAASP
Sequence of UniProt P28702 (P28702 whole entry, looked up, the tested form may be a part): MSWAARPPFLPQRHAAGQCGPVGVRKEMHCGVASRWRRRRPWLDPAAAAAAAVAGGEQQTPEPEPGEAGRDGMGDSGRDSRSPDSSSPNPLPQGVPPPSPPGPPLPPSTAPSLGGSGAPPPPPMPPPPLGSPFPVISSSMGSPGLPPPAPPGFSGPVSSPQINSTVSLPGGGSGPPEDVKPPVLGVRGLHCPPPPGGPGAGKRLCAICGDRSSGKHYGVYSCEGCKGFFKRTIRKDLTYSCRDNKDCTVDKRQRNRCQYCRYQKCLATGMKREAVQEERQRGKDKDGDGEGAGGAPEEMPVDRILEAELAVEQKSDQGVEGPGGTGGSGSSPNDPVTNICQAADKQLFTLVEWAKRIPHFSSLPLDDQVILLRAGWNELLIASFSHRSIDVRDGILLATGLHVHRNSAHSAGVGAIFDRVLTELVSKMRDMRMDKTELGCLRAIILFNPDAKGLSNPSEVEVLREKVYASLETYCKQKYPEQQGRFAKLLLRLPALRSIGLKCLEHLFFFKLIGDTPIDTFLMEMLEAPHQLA

One assay addresses human Retinoid X Receptor beta (RXRb), RXRB (gene 6257) (UniProt P28702). Description: ATG_RXRb_TRANS: Attagene TRANS-FACTORIAL HepG2 Assay for human Retinoid X Receptor beta (RXRb) (AID 2283013). The method, boiled down:
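Read-out: reporter mRNA induction via RT-PCR plus capillary electrophoresis fluorescence, analysed as signal increase relative to DMSO. Cells were human HepG2, transiently transfected with GAL4-UAS reporter constructs and chimeric receptor-Gal4 fusions, dosed for 24 h.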
In general, AC50 refers to the concentration at which the activity in the assay is half-maximal. As to `C=CC(C)(CCC=C(C)C)OC(=O)c1ccccc1` (centres undefined), the AC50 was active: 31.2 µM.
`CCCCCC/C=C/CCCCCCCC(=O)O`: the AC50 was active: 60.4 µM.
For the compound `C[C@H]1C[C@@H](O)CC(C)(C)C1`, the compound was classed as inactive.
`CCCCCCCCCCCCOCCOS(=O)(=O)O`: the compound was called inactive.
For the compound `Clc1cc(Cl)c(Cl)cc1Cl`, the AC50 was active: 61.4 µM.
As to `CCCCCCCCCCCC`, the outcome was inactive.
Consider `CCCCCCCCCCCC(=O)O`, for which the AC50 was active: 58.4 µM.
On to `Cc1[nH]c(=O)c(C#N)cc1-c1ccncc1`, for which the call was inactive.

Another assay concerns the target human Thyroid Receptor alpha (THRa1), THRA (gene 7067) (UniProt P10827). Description: ATG_THRa1_TRANS: Attagene TRANS-FACTORIAL HepG2 Assay for human Thyroid Receptor alpha (THRa1) (AID 2283014). The method in brief:
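Transient HepG2 transfection, NR-Gal4 chimera driving GAL4-UAS reporters; 24 h compound exposure; total RNA, oligo(dT) RT, PCR, fluorescent primer extension, capillary electrophoresis. Upward direction vs DMSO control.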
Turning to `N#Cc1nc(Cl)c(Cl)c(Cl)c1Cl`, the compound was called inactive.
In the case of `COC(=O)C1=C(C)NC(C)=C(C(=O)OCCN(C)Cc2ccccc2)C1c1cccc([N+](=O)[O-])c1` (centres undefined), the AC50 was active: 33.5 µM.
Regarding `Cc1cc(O)cc(C)c1Cl`, the outcome was inactive.
Same read-out and setting: under `CC1=NN(c2ccccc2)C(=O)C1` stands “inactive”; under `OCc1c[nH]c2ccccc12`, “inactive”.
Still for that read-out and setting: the entry for `CCCCCCOC(=O)CCCCC` is “inactive”.
